# PubChem BioAssay AID1458 (National Center for Advancing Translational Sciences (NCATS), 2008)
# The whole screen tested about 210,000 compounds, of which about 5,900 (2.8%) were called active. This list was built around the results that the source calls inconclusive (neither active nor inactive); the mix of calls is not that of the screen. The call rests on the fitted dose curve; in most records, active means well fitted activation curve with a large enough effect; inconclusive means small, poorly fitted or top-dose-only effect; inactive means no such curve, though single readings can be large or run the other way. Potencies of inconclusive entries are doubtful fits and often do not repeat.
# Experiment: qHTS Assay for Enhancers of SMN2 Splice Variant Expression; further: nearly all actives have a fitted effect of over 55% in size
# Conditions: HEK293 SMN2-luciferase splicing reporter, luminescence, 30-36 h; series mostly up to 46.1 µM
# Outline: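 qHTS luciferase splicing reporter: luminescence rises when SMN2 exon 7 is included in transfected HEK293 cells. Compound exposure lasted 30-36 h at 37C, with 4.5 mM final sodium butyrate as control, followed by a ONE-Glo read.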
# Potency means the concentration at half of the fitted maximal effect; tags describe the fitted curve by direction and shape.
row,Compound,Potency
1,NNC(=O)c1ccc(COc2ccc3c(c2)CCC3)cc1,"inconclusive: 5.62 µM [activator, partial curve]"
2,CCOC(=O)c1sc(NC(=O)CSc2ncn(-c3ccccc3)n2)nc1C,inactive
3,Fc1ccc2nc(Nc3nc4c(s3)CCCC4)sc2c1,active: 14.1 µM
4,Cc1ccc(OCc2ccc(C(=O)Nc3nc4ccccc4n3Cc3ccccc3)o2)c([N+](=O)[O-])c1,"inconclusive: 5.62 µM [activator, single point]"
5,Cc1ccc(SCCC(=O)N2CCCC2)cc1,inactive
6,COc1cccc(CNc2nc3ccccc3c3nc(-c4cccc(C)c4)nn23)c1,"inconclusive: 12.6 µM [activator, single point]"
7,Cn1c(C(=O)NCCN2CCc3ccccc3C2)cc2c(=O)n(C)c3ccccc3c21,"inconclusive: 1.58 µM [activator, full curve, poor fit]"
8,CCOc1ccccc1NC(=S)N(CCN(C)C)C(C)c1ccncc1 (stereo not given),"inconclusive: 11.2 µM [activator, single point]"
9,O=C(CSC1=NCCS1)Nc1ccc(S(=O)(=O)NC2CCCCC2)cc1,inactive
10,Cc1ccc(/C=N/n2c(C)nc3ccccc3c2=O)s1,"inconclusive: 10 µM [activator, partial curve, poor fit]"
11,Cc1ccc(CNc2nc3ccc(Cl)cc3n3cnnc23)cc1,"inconclusive: 6.31 µM [activator, single point]"
12,Cc1ccc(C)n1-c1ccc(-c2nnc3n2CCCCC3)s1,"inconclusive: 3.55 µM [activator, full curve, poor fit]"
13,Cc1ccc(-n2c(C)cc(C3=NNC(=NC4CC4)SC3)c2C)cc1C,"inconclusive: 22.4 µM [activator, single point]"
14,CCCCn1nnc(NC(=O)c2cc3ccccc3o2)n1,"inconclusive: 11.2 µM [activator, partial curve]"
15,O=C(/C=C/c1ccccc1Cl)Nc1cccc(S(=O)(=O)NC2=NCCCCC2)c1,active: 14.1 µM
16,Cc1oc(-c2ccccc2Cl)nc1CSCC(=O)N1CCCC1,"inconclusive: 3.16 µM [activator, partial curve]"
17,C=CCNC(=O)c1onc(CSc2ccc(C(C)C)cc2)c1C(=O)O,"inconclusive: 31.6 µM [activator, single point]"
18,C/C(=N\NC(=S)Nc1cccc(C)c1)c1cccc(N)c1,"inconclusive: 20 µM [activator, single point]"
19,CCCC(=O)OCC(=O)Nc1ccc(N=Nc2ccccc2)cc1,active: 15.8 µM
20,N#Cc1ccc(-c2csc(NC3=NCCCCC3)n2)cc1,"inconclusive: 0.0562 µM [activator, full curve]"
21,Cc1ccc(S(=O)(=O)NNC(=O)c2cccs2)c(C)c1,"inconclusive: 22.4 µM [activator, partial curve, poor fit]"
22,CN(C)/C=N/c1ncnc2c1cnn2-c1ccc(C(F)(F)F)cn1,active: 14.1 µM
23,COc1cc(OC)c2c(=O)c(-c3ccc4c(c3)OCO4)coc2c1,"inconclusive: 11.2 µM [activator, partial curve]"

row,Compound,Potency
1,O=S(=O)(Nc1ccc(S(=O)(=O)N2CCCCC2)cc1)c1cccs1,"inconclusive: 0.562 µM [activator, full curve]"
2,CCOc1ccccc1-c1nc(-c2cccc(Br)c2)no1,"inconclusive: 0.0032 µM [activator, full curve, poor fit]"
3,COc1ccc(N2CCN(C(=O)C3COc4ccccc4O3)CC2)cc1 (stereo not given),"inconclusive: 0.0562 µM [activator, full curve, poor fit]"
4,O=C(CC1CC2CCC1C2)OCC(=O)c1c[nH]c2ccccc12 (stereo not given),inactive
5,COC(=O)c1sccc1-c1ccc(C(=O)Nc2cccc(Cl)c2)o1,"inconclusive: 22.4 µM [activator, single point]"
6,CCc1ccc(NS(=O)(=O)c2ccc3oc(=O)c4ncn(CC)c4c3c2)cc1,inactive
7,Cc1ccc(-c2noc(CN3CCCCC3)n2)cc1,"inconclusive: 22.4 µM [activator, single point]"
8,CC1(C)CC(=O)c2c(O)cc(OCc3ccc(Br)cc3)cc2O1,"inconclusive: 14.1 µM [activator, partial curve]"
9,COc1ccc(N=Cc2sc3ccccc3c2Cl)cc1,inactive
10,Cc1ccc(-c2cc(C(=O)NCc3cnn(C)c3C)c3ccccc3n2)cc1C,"inconclusive: 28.2 µM [activator, single point]"
11,COc1ccc(-n2c(=O)c3ccccc3n(CC(=O)Nc3cc(C)on3)c2=O)cc1OC,"inconclusive: 0.158 µM [activator, partial curve, poor fit]"
12,CN(C)CCNC(=O)c1ccc(Sc2ccc(Br)cc2)c([N+](=O)[O-])c1,inactive
13,OC(CNC1CCCCC1)CN1CCN(CC(O)CNC2CCCCC2)CC1 (stereo not given),"inconclusive: 0.794 µM [activator, single point]"
14,COCc1nc2sc(C)c(C)c2c(=O)[nH]1,"inconclusive: 11.2 µM [activator, partial curve]"
15,Cc1occc1C(=O)Nc1ccc2c(c1)OCO2,active: 12.6 µM
16,Cc1cccc(S(=O)(=O)Nc2ccc(-c3cn4ccccc4n3)cc2)c1,"inconclusive: 11.2 µM [activator, partial curve]"
17,CC1CCc2sc(NC(=S)NC(=O)c3ccccc3)c(C#N)c2C1 (stereo not given),"inconclusive: 2.51 µM [activator, partial curve, poor fit]"
18,CCOC(=O)C1=C(C)NC(SCC(=O)Nc2cc(C)on2)=C(C#N)C1c1cccs1 (stereo not given),"inconclusive: 0.0398 µM [activator, full curve, poor fit]"
19,CCCCOc1ccc(C(=O)NC)cc1,inactive
20,Cc1ccc(SCCn2nc(C(=O)O)c3ccccc3c2=O)cc1,"inconclusive: 3.98 µM [activator, partial curve]"
21,c1ccc2c(Nc3nnc(-c4ccncc4)s3)cccc2c1,"inconclusive: 35.5 µM [activator, single point]"
22,COC(=O)c1ccc(Oc2nc(NC(C)C)nc(SC)n2)cc1,"inconclusive: 3.98 µM [activator, full curve, poor fit]"
